Experimental data published in the supplement of paper PMC4967469.

Assays:
Assay in all cases: Viability of human cancer cell lines after 72 h of drug (GDSC screen)
CGP-60474 = compound: OCCCNc1cc(-c2ccnc(Nc3cccc(Cl)c3)n2)ccn1 [CGP-60474]; settings: top dose 0.256 µM; top dose inferred
Procedure: (§1)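 Human cancer cell lines in 384-well plates, medium with 10% serum, drug for 72 h over a 256-fold dose range (nine 2-fold or five 4-fold steps up to the top dose). Adherent lines were fixed and stained with the nucleic acid dye Syto60, suspension lines read with resazurin; signal relative to control wells, capped at 0 and 100%. One two-parameter sigmoid per drug and line, fitted in a mixed model over all curves with the slope shared within a line.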

YM155 = compound: COCC[n+]1c2c(n(Cc3cnccn3)c1C)C(=O)c1ccccc1C2=O [YM155]; settings: top dose 5.12 µM
Procedure: as §1

Cyclopamine = compound: CC1=C2C[C@H]3[C@@H](CC=C4C[C@@H](O)CC[C@@]43C)[C@@H]2CC[C@]12O[C@@H]1C[C@H](C)CN[C@H]1[C@H]2C [Cyclopamine]; settings: top dose 16 µM; top dose inferred
Procedure: as §1

NSC-207895 = compound: CN1CCN(c2ccc([N+](=O)[O-])c3no[n+]([O-])c23)CC1 [NSC-207895]; settings: top dose 20 µM; top dose inferred
Procedure: as §1

JNK Inhibitor VIII = compound: CCOc1nc(NC(=O)Cc2cc(OC)ccc2OC)cc(N)c1C#N [JNK Inhibitor VIII]; settings: top dose 10 µM; top dose inferred
Procedure: as §1

OSI-906 = compound: C[C@]1(O)C[C@@H](c2nc(-c3ccc4ccc(-c5ccccc5)nc4c3)c3c(N)nccn32)C1 [OSI-906]; settings: top dose 2.56 µM; top dose inferred
Procedure: as §1

Belinostat = compound: O=C(/C=C/c1cccc(S(=O)(=O)Nc2ccccc2)c1)NO [Belinostat]; settings: top dose 20 µM; top dose inferred
Procedure: as §1

AMG-706 = compound: CC1(C)CNc2cc(NC(=O)c3cccnc3NCc3ccncc3)ccc21 [AMG-706]; settings: top dose 2 µM; top dose inferred
Procedure: as §1

FTI-277 = compound: COC(=O)[C@H](CCSC)NC(=O)c1ccc(NC[C@@H](N)CS)cc1-c1ccccc1 [FTI-277]; settings: top dose 1.024 µM; top dose inferred
Procedure: as §1

JNJ-26854165 = compound: c1ccc2c(CCNc3ccc(Nc4ccncc4)cc3)c[nH]c2c1 [JNJ-26854165]; settings: top dose 10 µM
Procedure: as §1

SB-715992 = compound: Cc1ccc(C(=O)N(CCCN)[C@@H](c2nc3cc(Cl)ccc3c(=O)n2Cc2ccccc2)C(C)C)cc1 [SB-715992]; settings: top dose 0.128 µM; top dose inferred
Procedure: as §1

JQ1 = compound: Cc1sc2c(c1C)C(c1ccc(Cl)cc1)=N[C@@H](CC(=O)OC(C)(C)C)c1nnc(C)n1-2 [JQ1]
Procedure: as §1

[1] = top dose 1 µM, screen: GDSC drug entry 1218, top dose inferred
[2] = top dose 2.56 µM, screen: GDSC drug entry 163

| Cell Line | AUC (CGP-60474) | IC50 (CGP-60474) | AUC (YM155) | IC50 (YM155) | AUC (Cyclopamine) | IC50 (Cyclopamine) | AUC (NSC-207895) | IC50 (NSC-207895) | AUC (JNK Inhibitor VIII) | IC50 (JNK Inhibitor VIII) | AUC (OSI-906) | IC50 (OSI-906) | AUC (Belinostat) | IC50 (Belinostat) | AUC (AMG-706) | IC50 (AMG-706) | AUC (FTI-277) | IC50 (FTI-277) | AUC (JNJ-26854165) | IC50 (JNJ-26854165) | AUC (SB-715992) | IC50 (SB-715992) | AUC (JQ1; [1]) | IC50 (JQ1; [1]) | AUC (JQ1; [2]) | IC50 (JQ1; [2]) |
| --- | --- | --- | --- | --- | --- | --- | --- | --- | --- | --- | --- | --- | --- | --- | --- | --- | --- | --- | --- | --- | --- | --- | --- | --- | --- | --- |
| 697 (lymphoblastic leukaemia, suspension) | 0.54 | 20.2 nM | 0.013 | < 20 nM | 0.923 | > 16000 nM | 0.835 | 9650 nM | 0.979 | > 10000 nM | 0.955 | > 2560 nM | 0.094 | 89.7 nM | 0.983 | > 2000 nM | 0.988 | > 1020 nM | 0.819 | 4280 nM | 0.465 | 6.57 nM | – | – | – | – |
| A101D (melanoma, adherent) | 0.553 | 23 nM | 0.094 | < 20 nM | 0.981 | > 16000 nM | 0.929 | > 20000 nM | 0.973 | > 10000 nM | 0.974 | > 2560 nM | 0.508 | 1320 nM | 0.968 | > 2000 nM | 0.939 | > 1020 nM | 0.908 | > 10000 nM | 0.898 | > 128 nM | 0.923 | > 1000 nM | 0.627 | 389 nM |
| A388 (skin, adherent) | 0.659 | – | 0.038 | < 20 nM | 0.925 | > 16000 nM | 0.794 | 10800 nM | 0.926 | > 10000 nM | 0.978 | > 2560 nM | 0.648 | 3430 nM | 0.951 | > 2000 nM | 0.97 | > 1020 nM | 0.878 | > 10000 nM | 0.765 | 53.8 nM | 0.964 | > 1000 nM | 0.488 | 147 nM |
| COLO-829 (melanoma, adherent) | 0.835 | > 256 nM | 0.134 | < 20 nM | 0.856 | > 16000 nM | 0.888 | > 20000 nM | – | – | 0.979 | > 2560 nM | 0.56 | 1970 nM | – | – | 0.882 | > 1020 nM | 0.951 | > 10000 nM | 0.941 | > 128 nM | 0.971 | > 1000 nM | 0.764 | 1380 nM |
| Calu-6 (lung adenocarcinoma, adherent) | 0.856 | > 256 nM | 0.036 | < 20 nM | 0.975 | > 16000 nM | 0.959 | > 20000 nM | 0.984 | > 10000 nM | 0.965 | > 2560 nM | 0.34 | 418 nM | 0.984 | > 2000 nM | 0.976 | > 1020 nM | 0.934 | > 10000 nM | 0.783 | 62.4 nM | 0.973 | > 1000 nM | 0.804 | 1510 nM |
| EM-2 (chronic myeloid leukaemia, suspension) | 0.83 | 190 nM | 0.032 | < 20 nM | 0.969 | > 16000 nM | 0.925 | > 20000 nM | 0.977 | > 10000 nM | 0.982 | > 2560 nM | 0.544 | 1670 nM | 0.982 | > 2000 nM | 0.978 | > 1020 nM | 0.896 | > 10000 nM | 0.922 | > 128 nM | 0.757 | 387 nM | 0.749 | 930 nM |
| ES3 (Ewing sarcoma, adherent) | 0.914 | > 256 nM | 0.029 | < 20 nM | 0.979 | > 16000 nM | 0.985 | > 20000 nM | 0.911 | > 10000 nM | 0.743 | 830 nM | 0.348 | 462 nM | 0.936 | > 2000 nM | 0.979 | > 1020 nM | – | – | 0.608 | 16.2 nM | 0.983 | > 1000 nM | 0.767 | 999 nM |
| EVSA-T (breast, adherent) | 0.82 | 120 nM | 0.082 | < 20 nM | 0.883 | 12900 nM | 0.802 | 8240 nM | 0.976 | > 10000 nM | 0.991 | > 2560 nM | 0.273 | 317 nM | 0.951 | > 2000 nM | 0.991 | > 1020 nM | 0.94 | > 10000 nM | 0.836 | 68.6 nM | 0.991 | > 1000 nM | 0.717 | 592 nM |
| HCC1599 (breast, suspension) | 0.649 | 44.2 nM | 0.053 | < 20 nM | 0.939 | > 16000 nM | 0.935 | > 20000 nM | – | – | 0.981 | > 2560 nM | 0.293 | 296 nM | – | – | 0.97 | > 1020 nM | – | – | 0.676 | 26.8 nM | – | – | 0.798 | 1430 nM |
| HCC-33 (small cell lung carcinoma, adherent) | 0.862 | 223 nM | 0.029 | < 20 nM | 0.967 | > 16000 nM | 0.828 | 12500 nM | – | – | 0.863 | 2270 nM | 0.233 | 207 nM | – | – | 0.984 | > 1020 nM | – | – | 0.835 | 85.3 nM | – | – | 0.928 | > 2560 nM |
| HEL (acute myeloid leukaemia, semi-adherent) | 0.752 | 72.2 nM | 0.366 | 147 nM | 0.981 | > 16000 nM | 0.871 | 13600 nM | – | – | 0.965 | > 2560 nM | 0.131 | 117 nM | – | – | 0.975 | > 1020 nM | 0.878 | 7280 nM | 0.889 | 103 nM | 0.991 | > 1000 nM | 0.589 | 268 nM |

By IC50 is meant the dose at which the fit gives 50% viability; fits outside the tested doses are given as limits. AUC is the area under the same curve over the 256-fold range up to the top dose, as a fraction: 1 means no effect, lower means more sensitive. For part of these data: Any top dose called inferred is not printed in the source and was worked back from the curve model. For part of these data: An entry number marks a drug with two screens in the source, which often give different values.
